Reference: the RNAGym collection of RNA variant scans (doi:10.1073/pnas.2313332121)
Variants at the floor of the assay are shown more often than the library holds them.

B1: TPR 5TU (parent)
chain: GGAUCUUCUCGAUCUAACAAAAAAGACAAAUCUGCCACAAAGCUUGAGAGCAUCUUCGGAUGCAGAGGCGGCAGCCUUCGGUGGCGCGAUAGCGCCAACGUUCUCAACUAUGACACGCAAAACGCGUGCUCCGUUGAAUGGAGUUUAUCAUG

Variants of: B1
Assay: polymerase ribozyme fitness, log enrichment relative to wild type (log ratio); higher = more active; in vitro selection for triplet polymerase activity
Outline: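 Fitness is a logarithmic measure of how a genotype enriched relative to the wild type, with replicate averages weighted by inverse variance. The logarithm uses base 2, and enrichment came from Illumina sequencing of input and output libraries. Those libraries were PCR-built, transcribed mutants of each subunit of a heterodimeric triplet polymerase ribozyme, passed through one triplicate in vitro selection round that included frozen incubation at −7 °C, gel excision of extended constructs and streptavidin-bead capture. Genotypes were kept only if they had ≥10 input reads and ≥1 read per output.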

| Variant | polymerase ribozyme fitness (log ratio) |
| --- | --- |
| C43U G50U C87U C116G U144G | ≤ -4.2 |
| U45A A91U G140A G141A | ≤ -4.2 |
| C43U C75G G84U | ≤ -4.2 |
| G46C A47C U55G A64C C79A A121U U145C | ≤ -4.2 |
| C43G G50C G62U C75U G84A C93U U151C | ≤ -4.2 |
| C43A C57G A60C U61A C69U C93U | ≤ -4.2 |
| C43U A66G C105A | ≤ -4.2 |
| U44G A91U A137U | ≤ -4.2 |
| U44A C95U U101G A120C | ≤ -4.2 |
| U45G C76G G84A C131G | ≤ -4.2 |
| U44G C54A C85A G124A U139A G143U | ≤ -4.2 |
| C43A C76A G83U A121G G133U | ≤ -4.2 |
| C43U C103G | ≤ -4.2 |
| U44G U61A G81C G88U C93G A110G | ≤ -4.2 |
| C43A C118G C123G | ≤ -4.2 |
| U44A U53A G68A G88C | ≤ -4.2 |
| U44A U53A C85U U109G | ≤ -4.2 |
| C43U A49C C54U C108G C118A | ≤ -4.2 |
| U44A G50A C95U | ≤ -4.2 |
| U45G A115G A147C | ≤ -4.2 |
| U44A U90C C96U U109A G126C G141U | ≤ -4.2 |
| C43U G62C U102A C105U U135C | ≤ -4.2 |
| U45G A47C A142G | -3.91 |
| C43A G83U A113C G143A | ≤ -4.2 |

| Variant | polymerase ribozyme fitness (log ratio) |
| --- | --- |
| U45G G70A C87U U144G | ≤ -4.2 |
| U45G C51U C95A C125U | -3.64 |
| C43A A64U A91G U102C C114U C129U | ≤ -4.2 |
| U44A U45A A60U G62C C114U | ≤ -4.2 |
| U44A C87A A89U A107G U134A A142U | ≤ -4.2 |
| G46C U109G | -1.81 |
| C43A U44G A64C C118G C131G A137G G152U | ≤ -4.2 |
| G42U U146C | ≤ -4.2 |
| G46A G81C G86U A89G U127G G136U G141A A150C | ≤ -4.2 |
| U45A A73U G83A G128U U151A | ≤ -4.2 |
| U45G C87U U139A | ≤ -4.2 |
| C43U G70A C87A C118G A138G G143C | ≤ -4.2 |
| A47C A49G G83A G140A | ≤ -4.2 |
| U45G A66C C76A G86U C96U | ≤ -4.2 |
| C43A U61A G65C C87G G124A G128C A147U | ≤ -4.2 |
| C43U U56A C79U U82G C87G G128C A137G G152U | ≤ -4.2 |
| U45A A49C G84A | ≤ -4.2 |
| U45A A49C G80C U102G | ≤ -4.2 |
| C43U A52U C85G G133U | ≤ -4.2 |
| C43U U55A C93U A106G U111A A138U | ≤ -4.2 |
| C43U G83U G92A | ≤ -4.2 |
| U45A C85U C118A | ≤ -4.2 |
| G46U C85G | -1.84 |
| C43U G141C U144G | ≤ -4.2 |

| Variant | polymerase ribozyme fitness (log ratio) |
| --- | --- |
| U44A C85U U144A | ≤ -4.2 |
| U44A C96G C99G G117U U146C | ≤ -4.2 |
| A47C C51G G68C C76U C87U C93G C103G C105G U127G A137G | ≤ -4.2 |
| G46U C57G A138C | ≤ -4.2 |
| U44G U56A C79A G124U | ≤ -4.2 |
| U44G C57G A66G G83C C85U A138C U151G | ≤ -4.2 |
| U45G G128U | -3.86 |
| G46C G94A G128C C129A | ≤ -4.2 |
| U44A G80C | ≤ -4.2 |
| U45G G84A A91C C129G G140A | ≤ -4.2 |
| C43A C57U C75U U77C C87A C93A C108A C149G | ≤ -4.2 |
| U44A C85A | ≤ -4.2 |
| U45G U56A C75U A91U A97G A115G G140A | ≤ -4.2 |
| C43A G92A A98U A137C | ≤ -4.2 |
| U45A U78A U82C C125U U139A | ≤ -4.2 |
| U45A U90G C93G C132U A138U U144A | ≤ -4.2 |
| U45A G84A | -3.44 |
| C43U C93U | ≤ -4.2 |
| U44G G133C A137G U146C | ≤ -4.2 |
| C43U G74U C85G G136A G140C | ≤ -4.2 |
| U44G C76G G124U A147C | ≤ -4.2 |
| C43U A49G C51G U55A A91G A113U A150C | ≤ -4.2 |
| U44G U82G | ≤ -4.2 |
| C43U C51G A66C U78A A98G G141U | ≤ -4.2 |

| Variant | polymerase ribozyme fitness (log ratio) |
| --- | --- |
| C43A G81A C96A U145A | ≤ -4.2 |
| U45A A52G G86A A89U A91C A142C C149G | ≤ -4.2 |
| U44A A47U G50C C57G G65A C96U | ≤ -4.2 |
| C43A A66G U77A A97G U146A | ≤ -4.2 |
| G46C A49C U56A C57U G62A C63A C69U G86C C99U G141C U145G C149U A150U | ≤ -4.2 |
| C43G U44G C96U G126A U148G | ≤ -4.2 |
| G46C U61A G88C C99G U111A G143U U145C | ≤ -4.2 |
| U44A U55A C57U G88A C99A A122U G128A | ≤ -4.2 |
| U44A U77G G84U C118U | ≤ -4.2 |
| U44G G48U A115G C131U | ≤ -4.2 |
| U44A U55G G71U C72A A91U G117A U145C | ≤ -4.2 |
| G46U C54U A73U | -3.31 |
| C43U U55A G88C | ≤ -4.2 |
| G46U G74A C85U G117A C123G C129G G140U | ≤ -4.2 |
| U45A C96U G100U U139G | ≤ -4.2 |
| U45C U55A | -1.08 |
| U44A G88U U111G | ≤ -4.2 |
| U45A C72A G86U C99U | ≤ -4.2 |
| A47C C54U C69U C75A C76G | ≤ -4.2 |
| C43A U55A C57U C87G | ≤ -4.2 |
| G46U C75A C76G A91U C108G A137G | ≤ -4.2 |
| U45G U56A | 0.0147 |
| U45A G133A U134C | ≤ -4.2 |
| U44A G83C C85G U146C | ≤ -4.2 |

| Variant | polymerase ribozyme fitness (log ratio) |
| --- | --- |
| U44A A89G G92U C149G | ≤ -4.2 |
| U44G G59A G68A G94C C118G C131A C149U | ≤ -4.2 |
| G46U C54U G59U C76U A119U U146A | ≤ -4.2 |
| G46C U56A G84A G133C | -2.71 |
| U44A G50A C79A C99U U102G C108U | ≤ -4.2 |
| U44A C93A C108U C125G A142G U145G U146A | ≤ -4.2 |
| G46A A49C U101G C132G | ≤ -4.2 |
| U44A C51U G67U | ≤ -4.2 |
| A47C C54U G84A U109G | -1.84 |
| U44G C54U A91C | ≤ -4.2 |
| U44A G50C G59A C85U C95U C116A C123G | ≤ -4.2 |
| A47C A49C A91C A122G | ≤ -4.2 |
| U45A A52C | ≤ -4.2 |
| U44A G86A C93U C103G C108U G128A | ≤ -4.2 |
| G46C C93U U134G G140A | ≤ -4.2 |
| U45A C99A A106U A121U C149G G152A | -4.01 |
| G46C C63A A66C U78G C79U U101G | ≤ -4.2 |
| U44A G83U C105G | ≤ -4.2 |
| C43G G68C G80C C85G U127G | ≤ -4.2 |
| A47C A52G A64U | ≤ -4.2 |
| U45A C95U G128A U146G U148A U151G | ≤ -4.2 |
| C43U C54U G71U C79A A120C | ≤ -4.2 |
| C43G U44A U45G G58C A66U C93U A106G C125U U134C | ≤ -4.2 |
| C43G G74A A91U G92U A98C U109G C132U | ≤ -4.2 |

| Variant | polymerase ribozyme fitness (log ratio) |
| --- | --- |
| C43G A60C C131U A138G | ≤ -4.2 |
| G46A C99U G141A | ≤ -4.2 |
| U44G A47C A66G G67A C87A C96G U145A | ≤ -4.2 |
| U45A C54U U61A C85U | ≤ -4.2 |
| G46U C69U A73U A120G | ≤ -4.2 |
| U45A A52U U56A C76U | ≤ -4.2 |
| U44A G80A A138U A150G | ≤ -4.2 |
| C43A G58C C76A U102C G141A | ≤ -4.2 |
| U44G G58A U61A C87G A113G | ≤ -4.2 |
| G46A C85G A91C C95G C105U A150G | ≤ -4.2 |
| C43U G50C | ≤ -4.2 |
| U45A G48C A60C C76G C79A G92A U127C | ≤ -4.2 |
| A47C A52G U77G G94U C99U | ≤ -4.2 |
| U45A G46C C116U G133A | ≤ -4.2 |
| U44A G48A A49C C57G G83A U145A | ≤ -4.2 |
| U44A G48C G68A | ≤ -4.2 |
| G46C C57A A66U A113C | ≤ -4.2 |
| U45A G48A C57U A107G | ≤ -4.2 |
| U44A U45A C51U C95A C103G | ≤ -4.2 |
| C43A G62A G124C | ≤ -4.2 |
| G46U C87A G88A G143U U148A | ≤ -4.2 |
| U45C A52G A115U A147G C149G | ≤ -4.2 |
| C43U G48A C96U U111A | ≤ -4.2 |
| U44C G83C U148A | ≤ -4.2 |

| Variant | polymerase ribozyme fitness (log ratio) |
| --- | --- |
| U44G G141C | ≤ -4.2 |
| C43U U55A G112U U146A | ≤ -4.2 |
| U44C G124C | ≤ -4.2 |
| C43U G62A G86U G126A G133A U151A | ≤ -4.2 |
| C43U A49C C96A A107C A113U | ≤ -4.2 |
| C43G G81U A91U G124C U135G | ≤ -4.2 |
| G46A A47G G48A G50C G136A | ≤ -4.2 |
| U44A A49U C54U G59U G92A A106U | ≤ -4.2 |
| G46A A49G G59U G68A C96U | ≤ -4.2 |
| U45A U78G C85U U134C | ≤ -4.2 |
| U44G G58C U61G C63U G67C C69A U78C C95U C105G U146G | ≤ -4.2 |
| A47C A52G G68C A91C | ≤ -4.2 |
| C43A A66U A106U C123A | ≤ -4.2 |
| C43U G48C U53G U55G U102A C118A A119C A150C G152C | ≤ -4.2 |
| G46A U55A A91G A138G A142C | ≤ -4.2 |
| U45G U53G G58C C85U C87A C99G A106U G136A A142U | ≤ -4.2 |
| U45A C93G | ≤ -4.2 |
| A47C A89U C96U A98G A107U C114G C131A | ≤ -4.2 |
| A47C A49U C51U G59U A64C A119G C149G | ≤ -4.2 |
| A47C A66C G68U C85A C95A C108G | ≤ -4.2 |
| U45G G50C C51A A73U C96U A106U U111G | ≤ -4.2 |
| U44G A60C G65U G67U G80U | ≤ -4.2 |
| A47C C57G G65U C93A C125U | ≤ -4.2 |
